Each structure is given as a SMILES string. The whole screen tested about 310,000 compounds, of which about 14,000 (4.5%) showed an effect of 50% or more. Effects have a minus sign here. This is one part of the list.

Here are results for 44 compounds from article PMC4336329 (PLoS ONE, 2015).
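Also: peak tail current of the secondary pulse compared with the same well before compound.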

In the experiment the target is human ether-à-go-go-related gene (hERG) potassium channel (human, UniProt Q12809). The experiment in a line: primary screen, population patch clamp on CHO cells stably expressing hERG.
human ether-à-go-go-related gene (hERG) potassium channel, sequence (Q12809 whole entry, looked up): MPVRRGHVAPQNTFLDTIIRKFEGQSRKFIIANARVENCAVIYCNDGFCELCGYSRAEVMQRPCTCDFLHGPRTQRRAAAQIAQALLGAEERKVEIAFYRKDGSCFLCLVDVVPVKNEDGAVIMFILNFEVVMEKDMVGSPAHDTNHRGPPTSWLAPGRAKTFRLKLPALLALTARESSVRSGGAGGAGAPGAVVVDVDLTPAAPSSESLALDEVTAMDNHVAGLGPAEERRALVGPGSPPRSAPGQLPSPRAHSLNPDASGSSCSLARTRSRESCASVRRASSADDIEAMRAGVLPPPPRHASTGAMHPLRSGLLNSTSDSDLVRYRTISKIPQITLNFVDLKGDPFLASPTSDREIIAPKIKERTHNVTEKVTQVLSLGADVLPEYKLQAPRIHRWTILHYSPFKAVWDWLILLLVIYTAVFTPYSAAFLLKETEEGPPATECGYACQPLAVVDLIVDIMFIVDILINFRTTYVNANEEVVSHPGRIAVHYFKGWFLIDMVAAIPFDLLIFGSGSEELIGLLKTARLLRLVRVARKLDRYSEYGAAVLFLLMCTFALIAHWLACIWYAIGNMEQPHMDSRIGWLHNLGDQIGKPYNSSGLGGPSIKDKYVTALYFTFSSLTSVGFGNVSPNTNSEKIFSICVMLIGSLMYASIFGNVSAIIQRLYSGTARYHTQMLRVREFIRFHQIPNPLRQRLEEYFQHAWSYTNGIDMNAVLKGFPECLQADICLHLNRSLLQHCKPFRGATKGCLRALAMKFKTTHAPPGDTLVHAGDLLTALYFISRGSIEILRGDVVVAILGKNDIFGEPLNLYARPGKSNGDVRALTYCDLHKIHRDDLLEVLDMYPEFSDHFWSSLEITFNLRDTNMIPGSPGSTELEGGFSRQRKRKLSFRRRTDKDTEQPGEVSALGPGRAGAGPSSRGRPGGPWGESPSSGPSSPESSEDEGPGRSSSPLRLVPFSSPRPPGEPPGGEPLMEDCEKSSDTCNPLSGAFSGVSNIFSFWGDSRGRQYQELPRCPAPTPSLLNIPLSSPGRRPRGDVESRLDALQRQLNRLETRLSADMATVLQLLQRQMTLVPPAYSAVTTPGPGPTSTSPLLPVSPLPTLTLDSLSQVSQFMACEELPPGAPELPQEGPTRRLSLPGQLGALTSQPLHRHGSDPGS
As for `COc1ccc(-n2nc3c(N4CCC(C(=O)NCC(C)c5ccccc5)CC4)nnc(C)c3c2C)cc1` (centres unmarked), the “hERG current change (%, negative = inhibition) at 10uM” value was -32.6%.

With `CC1CCCN(C(=O)c2ccc(OC3CCN(CCc4ccccc4)CC3)cc2)C1` (centres unmarked), the “hERG current change (%, negative = inhibition) at 10uM” value is -58.1%.

Regarding `CCc1cccc2c1Sc1ccccc1CC2N1CCNCC1.CS(=O)(=O)O` (centres unmarked), the “hERG current change (%, negative = inhibition) at 10uM” value is given as -31.1%.

For the compound `Cc1ccc(S(=O)(=O)N2CCN(C(=O)c3cccc(-n4cccc4)c3)CC2)cc1`, the “hERG current change (%, negative = inhibition) at 10uM” value is reported as -51.3%.

Consider `COc1ccc(CCNC(=O)CSc2nnnn2C)cc1OC`, for which the “hERG current change (%, negative = inhibition) at 10uM” value came out at 43.3%.

Take `COC(=O)C1=C(N)Oc2c(oc(CO)cc2=O)C1c1ccccc1F` (centres unmarked): the “hERG current change (%, negative = inhibition) at 10uM” value was 9.97%.

For the compound `CC(=O)Nc1ccc(Oc2cc(NC(C)=O)cc([N+](=O)[O-])c2)cc1`, the “hERG current change (%, negative = inhibition) at 10uM” value is 6.36%.

Consider `CCCCCCOc1ccc(OC(=O)c2ccncc2)cc1`, for which the “hERG current change (%, negative = inhibition) at 10uM” value turned out to be 6.12%.

With `CCOC(=O)N1CCN(S(=O)(=O)N2CCCC(C(=O)NCCCN3CC(C)CC(C)C3)C2)CC1` (centres unmarked), the “hERG current change (%, negative = inhibition) at 10uM” value is recorded as 18.9%.

On to `CCC/C(=N/Nc1ccc(Cl)cc1)c1cnnc(-c2ccccc2)n1`, for which the “hERG current change (%, negative = inhibition) at 10uM” value is given as -10.2%.

Consider `C/C(CC(=O)Nc1cccnc1)=N/NC(=O)COc1ccc(Cl)cc1Br`, for which the “hERG current change (%, negative = inhibition) at 10uM” value was -6.52%.

Turning to `Cc1ccc(CN2CCN(Cc3ccccc3F)CC2)cc1.O=C(O)C(=O)O`, the “hERG current change (%, negative = inhibition) at 10uM” value is -12.2%.

Consider `COC(=O)C1=C(c2ccc(C(C)=O)cc2)C[C@@H]2CC[C@H]1N2C(=O)NCCNC(C)=O`, for which the “hERG current change (%, negative = inhibition) at 10uM” value was 26%.

As to `CCn1ncc([N+](=O)[O-])c1C(=O)Nc1ccc(C)c(C)c1`, the “hERG current change (%, negative = inhibition) at 10uM” value is listed as -6.38%.

Take `COCCN(C(=O)CC1CCCC1)c1c(N)n(CC(C)C)c(=O)[nH]c1=O`: the “hERG current change (%, negative = inhibition) at 10uM” value was 1.4%.

Regarding `COc1ccccc1CNC(=O)CCS(=O)(=O)Cc1ccc(C)cc1`, the “hERG current change (%, negative = inhibition) at 10uM” value is given as 11.3%.

For `O=C(C1CCN(S(=O)(=O)N2CCCC2)CC1)N1CCCCC1`, the “hERG current change (%, negative = inhibition) at 10uM” value was found to be 4.84%.

`Cc1cc(C)c(NC(=O)COc2nc3ccccc3nc2C)c(C)c1`: the “hERG current change (%, negative = inhibition) at 10uM” value is given as 19.2%.

For `CC1(C)CC(=O)C2=C(C1)OC(N)=C(C#N)C21C(=O)N2CCCc3cccc1c32` (centres unmarked), the “hERG current change (%, negative = inhibition) at 10uM” value is on record as 23.5%.

Consider `Cc1ccc2c(c1)[C@@H]1CN(C)CC[C@@H]1N2S(=O)(=O)c1ccc([N+](=O)[O-])cc1.Cl`, for which the “hERG current change (%, negative = inhibition) at 10uM” value was -75%.

With `CCn1ncc([C@@H]2C[C@H]3CN(Cc4ccccc4C)C(=O)[C@]34CCCN24)c1C`, the “hERG current change (%, negative = inhibition) at 10uM” value is 17.7%.

With `CCc1ccc(NC(=O)CSc2nnnn2C)cc1`, the “hERG current change (%, negative = inhibition) at 10uM” value is on record as 16.5%.

Turning to `Cc1occc1-c1nnc(SCC(=O)c2cc3ccccc3oc2=O)o1`, the “hERG current change (%, negative = inhibition) at 10uM” value was determined as 8.73%.

In the case of `CC(=O)NC(Cc1cccc(F)c1)C(=O)NC1CCN(C(=O)Nc2ccccc2)CC1` (centres unmarked), the “hERG current change (%, negative = inhibition) at 10uM” value stood at 8.24%.

For `O=C(NNC(=O)c1cc(-c2cccc(Br)c2)nc2ccccc12)c1csc(N2CCOCC2)n1`, the “hERG current change (%, negative = inhibition) at 10uM” value is -12%.

Consider `C=CCn1c(SCC(=O)c2ccc(O)c(O)c2)nnc1-c1cccnc1`, for which the “hERG current change (%, negative = inhibition) at 10uM” value was 19.8%.

For `Cc1ccc(C(=O)OCC(=O)Nc2cccc(S(=O)(=O)N3CCCCC3)c2)o1`, the “hERG current change (%, negative = inhibition) at 10uM” value is 6.02%.

In the case of `O=C(COC(=O)c1ncc(Cl)c(Cl)c1Cl)Nc1cccnc1Cl`, the “hERG current change (%, negative = inhibition) at 10uM” value is 16.1%.

For the compound `O=S(=O)(c1ccc(NC(=S)NCc2ccc(F)cc2)cc1)N1CCOCC1`, the “hERG current change (%, negative = inhibition) at 10uM” value is on record as -36.4%.

As to `O=C(O)C1(c2ccccc2)CCN(S(=O)(=O)c2ccc(Br)cc2)CC1`, the “hERG current change (%, negative = inhibition) at 10uM” value came out at 11.7%.

With `COc1ccc(Cc2nnc(NC(=O)Cn3cnc4c3c(=O)n(C)c(=O)n4C)s2)cc1`, the “hERG current change (%, negative = inhibition) at 10uM” value worked out at 12.1%.

Turning to `O=C(CCCc1nc(-c2ccccc2)no1)Nc1cccnc1`, the “hERG current change (%, negative = inhibition) at 10uM” value is on record as 12%.

Regarding `CS(=O)(=O)N1CCN(C(=N)N[N+](=O)[O-])CC1`, the “hERG current change (%, negative = inhibition) at 10uM” value was found to be 33.1%.

As for `Cc1cc(NC(=O)c2cc(-c3ccco3)on2)n(-c2ccccc2)n1`, the “hERG current change (%, negative = inhibition) at 10uM” value is -0.313%.

As for `NC(=S)Cc1nc2n(n1)Cc1ccccc1-2`, the “hERG current change (%, negative = inhibition) at 10uM” value is reported as 21.6%.

With `CCCCCCCNc1nc(Cl)nc(NCCO)n1`, the “hERG current change (%, negative = inhibition) at 10uM” value is given as -7.98%.

In the case of `C=CCOc1ccc(/C=C/C(=O)OCC(=O)NCCCc2ccccc2)cc1`, the “hERG current change (%, negative = inhibition) at 10uM” value is recorded as -3.58%.

For `CCCc1nc2oc3cc(OC)ccc3c(=O)c2c(=O)n1CCc1ccccc1`, the “hERG current change (%, negative = inhibition) at 10uM” value is given as -38.3%.

Consider `COc1ccc(Cn2nnc3c(C)n[nH]c(=O)c32)cc1`, for which the “hERG current change (%, negative = inhibition) at 10uM” value was 9.86%.

For the compound `CC(C(=O)NCc1ccccc1Cl)n1cc([N+](=O)[O-])cn1` (centres unmarked), the “hERG current change (%, negative = inhibition) at 10uM” value is recorded as 4.65%.

In the case of `COc1ccc(CN2C3CCCC2CC(NC(=O)c2cccc(F)c2)C3)cc1` (centres unmarked), the “hERG current change (%, negative = inhibition) at 10uM” value was -82%.

In the case of `O=C(NCc1cccs1)C1CCCN(C(=O)Nc2ccccc2)C1` (centres unmarked), the “hERG current change (%, negative = inhibition) at 10uM” value came to 3.13%.

Consider `O=C(O)CCn1cc(C(=O)O)c(-c2ccccc2)n1`, for which the “hERG current change (%, negative = inhibition) at 10uM” value is recorded as 17.9%.

On to `CCCOc1cc(C)c(Cl)cc1S(=O)(=O)N(CC)CC`, for which the “hERG current change (%, negative = inhibition) at 10uM” value was -10.9%.
